The structures appear in SMILES notation. The list shows a part of the results. The main result of the screen is listed elsewhere. These columns were measured beside it and carry no call.

Holding throughout (test): Primary Screen for Target Class Profiling of Small Molecule Inhibitors of Methyltransferases
Assay [1] has as its target Glycine N-methyltransferase (Homo sapiens) (UniProt Q14749). Particulars: purified enzyme, MTase-Glo SAH luminescence; measured here: GNMT inhibition; at 40 µM; stronger effect = lower value. The method in brief:
(§1)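 Each enzyme was reacted with SAM and its substrate, with compounds tested once at 40 uM; SAH formed was read by MTase-Glo luminescence.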

Assay [2] has as its target Guanidinoacetate N-methyltransferase (Homo sapiens) (UniProt Q14353). The settings on record: purified enzyme, MTase-Glo SAH luminescence; measured here: GAMT inhibition; at 40 µM; stronger effect = lower value. The method in brief:
as §1

The target of assay [3] is Histamine N-methyltransferase (Homo sapiens) (UniProt P50135). Particulars: purified enzyme, MTase-Glo SAH luminescence; measured here: HNMT inhibition; at 40 µM; stronger effect = lower value. The method in brief: as §1
For assay [4], the target named is Nicotinamide N-methyltransferase (Homo sapiens) (UniProt P40261). Particulars: purified enzyme, MTase-Glo SAH luminescence; measured here: NNMT inhibition; at 40 µM; stronger effect = lower value. The gist of the method:
as §1

In assay [5] the target is Phenylethanolamine N-methyltransferase (Homo sapiens) (UniProt P11086). The settings on record: purified enzyme, MTase-Glo SAH luminescence; measured here: PNMT inhibition; at 40 µM; stronger effect = lower value. The method in brief:
as §1
% is scaled to controls: 0 for no effect and ±100 for the full control effect.

As to `CCn1c(=O)n(CC)c2cc(S(=O)(=O)Nc3ccccc3)ccc21`, the activity change, negative = inhibition in assay [1] was 12.6%; in assay [2], 2.23%; in assay [3], 11.3%; in assay [4], -3.08%; in assay [5] it was 6.99%.

`CC(C)OCCCNC(=O)C1(C)Cn2c(cc3ccccc32)C(=O)N1Cc1ccccc1` (stereo not given): the activity change, negative = inhibition in assay [1] was 8.01%; in assay [2] it was 4.2%; in assay [3], 9.03%; in assay [4], 0.017%; in assay [5], 2.37%.

For the molecule `CC[C@H]1CN(C(C)=O)CC[C@H]1CC(=O)NCCOC`, the activity change, negative = inhibition in assay [1] is -2.15%; in assay [2], -2.73%; in assay [3], 0.834%; in assay [4] it was -3.96%; in assay [5], 2.06%.

Consider `Cn1c(=O)c2ccc(C(=O)NC3CCCC3)cc2n2c(SCc3cccc(F)c3)nnc12`, for which the activity change, negative = inhibition in assay [1] was -9.37%; in assay [2] it was -3.23%; in assay [3], -9.07%; in assay [4], -3.94%; in assay [5], -5.87%.

As for `O=C(CN1C(=O)C2(CCCCC2)C1c1ccccc1)NCCc1c[nH]c2ccccc12` (stereo not given), the activity change, negative = inhibition in assay [1] was -12.2%; in assay [2], 2.98%; in assay [3], -5.77%; in assay [4], -12%; in assay [5] it was 0.633%.

`Cc1ccc(CN2C(=O)c3ccc(-c4ccccc4)n3CC2(C)C(=O)NC2CCCCCCC2)cc1` (stereo not given): the activity change, negative = inhibition in assay [1] was -4.16%; in assay [2] it was -0.966%; in assay [3], -10.3%; in assay [4], -17.1%; in assay [5], -8.42%.

`CNCCC(c1cccs1)c1ccc(O)c2ccccc12` (stereo not given): the activity change, negative = inhibition in assay [1] is 3.32%; in assay [2], 11.8%; in assay [3], -80.3%; in assay [4], -15%; in assay [5], -2.25%.

Regarding `CC(C)n1c(=O)c2ccc(C(=O)NC3CCCC3)cc2n2c(=O)n(Cc3ccc(F)cc3)nc12`, the activity change, negative = inhibition in assay [1] is -1.87%; in assay [2], 0%; in assay [3], 5.71%; in assay [4] it was 2.73%; in assay [5] it was 3.41%.

For `Cc1cccc(CN2C(=O)c3ccc(-c4ccccc4)n3CC2(C)C(=O)NC2CCCCC2)c1` (stereo not given), the activity change, negative = inhibition is -0.491% in assay [1]; 3.74% in assay [2]; -0.359% in assay [3]; 0.955% in assay [4]; -0.408% in assay [5].

With `CN(CC(=O)N1CCCC1)S(=O)(=O)c1ccc2[nH]c3c(c2c1)CCCC3`, the activity change, negative = inhibition was -11.5% in assay [1]; -2.69% in assay [2]; -3.73% in assay [3]; -3.25% in assay [4]; -4.51% in assay [5].

Turning to `CNC(=O)c1c(-c2ccc(F)cc2)oc2cc(N(CCO)S(C)(=O)=O)c(C3CC3)cc12`, the activity change, negative = inhibition in assay [1] is 4.74%; in assay [2], 1.29%; in assay [3], 7.76%; in assay [4] it was -8%; in assay [5] it was -2.05%.

Take `Cc1cc(C)c2[nH]c(C(=O)N(C)Cc3ccccc3-n3cccn3)c(C)c2c1`: the activity change, negative = inhibition is 0.293% in assay [1]; -4.22% in assay [2]; -3.02% in assay [3]; -8.77% in assay [4]; -5.46% in assay [5].

Turning to `C[C@](N)(Cc1ccc(O)cc1)C(=O)O`, the activity change, negative = inhibition in assay [1] is -3.3%; in assay [2] it was 7.42%; in assay [3] it was 5.44%; in assay [4] it was -7.27%; in assay [5] it was -5.11%.

With `CC1(C(=O)NC2CCCC2)Cn2c(cc3sccc32)C(=O)N1CCCc1ccccc1` (stereo not given), the activity change, negative = inhibition in assay [1] was -1.81%; in assay [2], 4.55%; in assay [3], -4.04%; in assay [4], -5.13%; in assay [5], -4.5%.

As for `CCCSCCCN1C(=O)c2cc3ccc(OC)cc3n2CC1(C)C(=O)NC1CCCCC1` (stereo not given), the activity change, negative = inhibition is 1.15% in assay [1]; 4.8% in assay [2]; 1.36% in assay [3]; 2.58% in assay [4]; -3.79% in assay [5].

`Cc1cccc(N2CCN(C(=O)C3c4ccccc4CC(=O)N3C)CC2)c1C` (stereo not given): the activity change, negative = inhibition in assay [1] was -8.97%; in assay [2], -12%; in assay [3], -6.45%; in assay [4], -20.2%; in assay [5], -11.1%.

Take `CC(C)CCN1C(=O)c2cc3sccc3n2CC1(C)C(=O)NC1CCCCCC1` (stereo not given): the activity change, negative = inhibition in assay [1] is -4.37%; in assay [2], 3.65%; in assay [3], 2.23%; in assay [4], 1.62%; in assay [5], -3.22%.

Turning to `O=C(c1ccc(C(F)(F)F)cc1)N1CCCC2(C1)C(=NC1CCCC1)NC(=O)N2c1cccnc1` (stereo not given), the activity change, negative = inhibition in assay [1] is -3.97%; in assay [2] it was -7.25%; in assay [3], -1.95%; in assay [4], -8.14%; in assay [5], -3.82%.

On to `CCCS(=O)(=O)N1CC[C@H]2NC(=O)N(c3ccc(F)cc3)C(=O)[C@H]21`, for which the activity change, negative = inhibition was -3.43% in assay [1]; -5.91% in assay [2]; -1.72% in assay [3]; -7.46% in assay [4]; -3.27% in assay [5].

Consider `CC(C)(O)C1CC=C(C(=O)OC[C@H]2O[C@@H](OC(=O)C3=CCC(C(C)(C)O)CC3)[C@H](O)[C@@H](O)[C@@H]2O)CC1` (stereo not given in full), for which the activity change, negative = inhibition in assay [1] was 1.33%; in assay [2] it was 5.22%; in assay [3], -3.59%; in assay [4], -8.45%; in assay [5] it was 4.82%.

As to `CCOc1cccc(C2c3cccn3-c3sc4c(c3CN2C(=O)Nc2cc(OC)ccc2OC)CCCC4)c1` (stereo not given), the activity change, negative = inhibition is -0.883% in assay [1]; 2.91% in assay [2]; -3.35% in assay [3]; 1.2% in assay [4]; 0.174% in assay [5].

For `CCOC(=O)C1=C(CN2CCn3cccc3C2C)NC(=O)NC1c1ccc(C)cc1` (stereo not given), the activity change, negative = inhibition in assay [1] was 1.55%; in assay [2] it was 0%; in assay [3], 3.12%; in assay [4], -2.64%; in assay [5], 1.52%.

Regarding `CC1(C(=O)NCc2ccccc2)Cn2nc(-c3ccccc3)cc2C(=O)N1c1ccc(Cl)cc1` (stereo not given), the activity change, negative = inhibition in assay [1] was 3.97%; in assay [2] it was 4.54%; in assay [3], 3.88%; in assay [4] it was 2.68%; in assay [5], 2.72%.

On to `C[N+](C)(C)CCOP(=O)(O)OP(=O)([O-])OC[C@H]1O[C@@H](n2ccc(N)nc2=O)[C@H](O)[C@@H]1O`, for which the activity change, negative = inhibition in assay [1] is 0.18%; in assay [2], 11.7%; in assay [3], 4.92%; in assay [4] it was -4.64%; in assay [5], 6.94%.

Consider `CCn1c(=O)n(CC)c2cc(S(=O)(=O)Nc3ccc(C)c(Cl)c3)ccc21`, for which the activity change, negative = inhibition in assay [1] is -4.78%; in assay [2], 1.82%; in assay [3] it was -5.04%; in assay [4], -25.3%; in assay [5] it was -3.48%.

Consider `CCCC[C@@]1(C2CCCC2)Cc2cc(OCC(=O)O)c(Cl)c(Cl)c2C1=O`, for which the activity change, negative = inhibition was -16.2% in assay [1]; 8.7% in assay [2]; -0.679% in assay [3]; -68.1% in assay [4]; 10.3% in assay [5].

In the case of `O=c1c2ccccc2n2c(SCc3cccc(F)c3)nnc2n1Cc1ccc(F)cc1`, the activity change, negative = inhibition in assay [1] is -0.293%; in assay [2], -2.22%; in assay [3], -2.8%; in assay [4], -6.45%; in assay [5], -6.57%.

Take `CCOc1ccc(NC(=S)N2CCC(C(O)(c3ccccc3)c3ccccc3)CC2)cc1`: the activity change, negative = inhibition in assay [1] is -2.41%; in assay [2], -14.8%; in assay [3], 6.33%; in assay [4] it was -28.3%; in assay [5], -5.31%.

For the molecule `COc1ccc([C@H]2C[C@@H](O)[C@@H](O)[C@@H]2N2CCCCC2)cc1`, the activity change, negative = inhibition in assay [1] was -2.88%; in assay [2], -2.99%; in assay [3], -2.65%; in assay [4], -5.38%; in assay [5], 10.5%.
